Among all 50,000 compounds or so, about 800 (1.6%) showed an effect of 50% or more. The list shows a part of the results.
Target: Bcl-2-like protein 10 (Homo sapiens) (UniProt Q9HD36)
Assay: TR3 peptide-Bcl-B binding displacers, biochemical primary FP assay, phenotype converters (AID 1240);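 further: 0% = Bcl-B with tracer peptide and DMSO and 100% = tracer peptide lacking Bcl-B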
Settings: GST-Bcl-B / FITC-TR3 peptide fluorescence polarization; stronger effect = higher value; compound at 3.75 mg/L

UniProt Q9HD36, sequence (Q9HD36 whole entry, looked up): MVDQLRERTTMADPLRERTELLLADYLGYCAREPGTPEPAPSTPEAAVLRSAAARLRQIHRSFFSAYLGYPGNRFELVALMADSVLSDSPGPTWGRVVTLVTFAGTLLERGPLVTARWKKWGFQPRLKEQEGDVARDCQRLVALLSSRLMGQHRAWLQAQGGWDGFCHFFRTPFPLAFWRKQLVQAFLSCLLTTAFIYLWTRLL

Compound	displacement
O=C(CCc1ccccc1)Nc1cc(Cl)cc(Cl)c1	3.5%
NC(=O)c1ccccc1N=Cc1ccc(Cl)c([N+](=O)[O-])c1	1%
O=[N+]([O-])c1ccc(Cc2ccncc2)cc1	10%
CN1C(=O)/C(=C\c2ccccc2OCc2ccc(Cl)cc2)SC1=S	2.3%
COCCNC(=O)CN(c1ccc(OC)cc1OC)S(C)(=O)=O	0%
COc1cc(C=NCC2(c3ccccc3)CCCC2)ccc1OC(C)=O	-1%
CC(C)CN1C(=O)c2ccc(C(=O)Nc3nccs3)cc2C1=O	-11.9%
C=CCOc1ccc(/C=C/C(=O)c2ccc(Cl)cc2)cc1OC	-1.3%
COc1cc(OC)c(C(=O)N2CC(=O)Nc3ccccc32)c(OC)c1	4.9%
CCN(CC)C(=O)CSc1nsc(SCC(=O)N(CC)CC)n1	1.8%
Cc1ccc(NC(=O)CCC(=O)NCCO)cc1	-5%
O=C(Nc1ccccc1[N+](=O)[O-])c1ccc(-c2ccccc2)cc1	13.6%
CN(C)c1ccc(NC(=O)COc2ccc(Cl)cc2Br)cc1	-12.1%
CCn1c(SCC(=O)c2ccc(Cl)cc2)nc2sc3c(c2c1=O)CCCC3	15.7%
CCCC(=O)NC(c1ccc(C)cc1)c1c(O)ccc2ccccc12 (stereo not given)	-0.3%
Cc1c(-c2ccc(Cl)cc2)nc2ccccc2c1C(=O)O	-6.5%
O=C(NCCN1CCOCC1)C(=O)NCc1ccc(Cl)cc1	2.3%
Cc1cc(NC(=O)c2cccc([N+](=O)[O-])c2C)ccc1Br	-3.3%
Cn1c(=O)c([N+](=O)[O-])c(NCCO)c2ccccc21	6.6%
COc1ccc(C(=O)N2CCN(Cc3cccc(C)c3)CC2)cc1OC	-24.7%
COc1ccc(NC(=O)COc2ccc(Cl)cc2Cl)cc1	-6.1%
COc1ccc(NC(=O)Cn2nc(C)c3ccccc3c2=O)cc1	-4.1%

Compound	displacement
COc1cc(/C=N/NC(=O)c2cccnc2)ccc1OS(=O)(=O)c1ccc(F)cc1	-6.7%
O=C(C1=C(O)C(=O)N(c2nncs2)C1c1ccc(Cl)cc1)c1cccs1 (stereo not given)	125%
CCOC(=O)c1c(NC(=O)/C=C/c2ccccc2)sc(C)c1C	9%
O=C(Nc1ccc(Cl)c(Cl)c1)c1cc2ccccc2o1	2.9%
O=C1C2C3C=CC(C3)C2C(=O)N1c1ccc([N+](=O)[O-])cc1Br (stereo not given)	13.2%
Cc1ccc(/C=N/N2CCN(Cc3cccc4ccccc34)CC2)s1	-7.8%
COc1cc(-c2nc3sc4c(c3c(=O)[nH]2)CCCC4)ccc1OS(=O)(=O)c1ccccc1	-8.5%
COC(=O)C1=C(C(=O)OC)SC(=C2C(=S)C(C)(C)N(C(=O)C(F)(F)F)c3cc(C)ccc32)S1	10.6%
CN1C(=S)N(c2ccccc2)C(C)(O)CC1(C)C (stereo not given)	13.1%
O=C(O)C1CCCCC1C(=O)NCCc1ccc(F)cc1 (stereo not given)	-2.3%
CSCCC(NC(=O)c1cc(C(C)(C)C)oc1C)C(=O)O (stereo not given)	6.4%
O=C(Nc1ccc(I)cc1)c1ccc(S(=O)(=O)N2CCCC2)cc1	19.5%
C/C(=N\NC(=O)c1cc(-c2ccc3ccccc3c2)n[nH]1)c1cccc([N+](=O)[O-])c1	-8.8%
Cc1ccc2occ(C(=O)c3ccccc3C)c(=O)c2c1	14.4%
CCOC(=O)c1ccc2nc(NC(=O)COC(=O)c3cc4ccccc4o3)sc2c1	10.3%
Cc1cc(C(=O)Nc2cccc3ccccc23)c(C)o1	12.5%
COc1ccc(C(=O)O/N=C2\CCCc3c2ccc(O)c3C)cc1OC	-8.3%
COc1cccc(N(CC(=O)Nc2ccc(Br)cc2)S(=O)(=O)c2ccccc2)c1	-1.3%
CCOC(=O)/C(C#N)=C\c1ccc(-c2ccc(Cl)cc2)o1	-2.4%
CCC(C)C(C(=O)Nc1ccc(C(=O)OC)cc1)N1C(=O)c2ccccc2C1=O (stereo not given)	9.7%
COC(=O)c1cc(C(=O)Nc2cc(C(F)(F)F)ccc2Cl)cc([N+](=O)[O-])c1	-5.7%
C=CCNC(=O)c1ccc(-c2cccc([N+](=O)[O-])c2)o1	4.3%

Compound	displacement
O=C(NCCCNc1ccc([N+](=O)[O-])cc1)c1ccc(Cl)cc1	1.2%
O=C1CN(C(=O)c2ccc(Cl)c([N+](=O)[O-])c2)c2ccccc2N1	4.8%
COc1cc(Br)cc(/C=C2\C(=O)NN(c3ccccc3)C2=O)c1O	0.3%
O=C1OC(c2cccc(Cl)c2)=N/C1=C\c1ccccc1[N+](=O)[O-]	7%
CCC(C)c1c(O)nc(SCC(=O)Nc2nc3ccccc3s2)[nH]c1=O (stereo not given)	-11.6%
Nc1ccc(C2CC(=O)NC(=O)N2)cc1 (stereo not given)	4.4%
O=c1nc(/C=C/c2cccc3ccccc23)cc(C(F)(F)F)[nH]1	49.7%
Nc1nnc(SCc2ccc([N+](=O)[O-])cc2)s1	13%
CC(Oc1ccccc1)C(=O)N1CCN(Cc2ccccc2)CC1 (stereo not given)	16.5%
COc1ccc(C(=O)Nc2ccccc2)cc1NC(=O)c1ccc(Cl)c(Cl)c1	0%
CCOC(=O)/C(C#N)=C/c1[nH]c2ccccc2c1OC(C)=O	11.2%
COC(CNS(=O)(=O)c1ccccc1)c1ccccc1 (stereo not given)	10%
O=c1cc(-c2ccccc2)[nH]n1-c1ccccc1	13.6%
C=C(C)COc1ccc2oc(-c3ccccc3)c(C(=O)O)c2c1	8.8%
CCn1c(-c2ccccc2Br)n[nH]c1=S	-7.2%
CCOc1ccccc1NC(=O)c1c(NC(=O)c2ccc(C)cc2)sc2c1CCC2	-8.4%
Cn1c(=O)c2c(nc(Sc3nc4ccccc4o3)n2C)n(C)c1=O	10.7%
COc1ccc(-c2cc(C(=O)Nc3cccc(Cl)c3)c3ccccc3n2)cc1	3.9%
Cc1ccc(C(=O)Nc2sc(C)c(C)c2C(=O)OC(C)C)o1	-1.1%
O=C(Nc1ccc(Cl)c(Cl)c1)c1ccc(I)cc1	9.3%
COC(=O)C1=C(C)N(c2ccccc2)C(=S)NC1c1ccc(OC)cc1 (stereo not given)	-13.4%
C/C(=N\NC(=O)c1cc(-c2ccco2)[nH]n1)c1ccc(O)cc1	-16.7%

Compound	displacement
N#C/C(=C\Nc1ccccc1)c1nc(-c2ccccc2)cs1	-4%
CC(=O)c1ccc(NC(=O)c2ccc(Cc3ccc(C)cc3)o2)cc1	11.1%
COc1ccc(/C=C2/C(=N)N3N=C(C(C)C)SC3=NC2=O)cc1OC	133%
Cc1ccccc1NC(=O)c1ccccc1NC(=O)C(O)(c1ccccc1)c1ccccc1	-14.3%
Cc1ccc(CN=C(N)Nc2nc(C)cc(C)n2)cc1	-12%
CC(NC(=O)C(=O)Nc1cccc(C(F)(F)F)c1)c1ccccc1 (stereo not given)	10%
CCOC(=O)C1=C(C)N=c2s/c(=C\c3ccc(N4CCOCC4)o3)c(=O)n2C1c1ccc(F)cc1 (stereo not given)	-27.1%
Cc1ccc(NC(=O)CCOc2ccccc2)c(C)c1	2.3%
CCOc1cc(/C=C2\C(=O)N(c3cccc(C(=O)O)c3)N=C2C)ccc1O	14.6%
CC1CCN(C(=O)c2ccccc2Cl)CC1	-0.9%
CCN(CC)S(=O)(=O)c1ccc(NC(=O)c2ccccc2C)cc1	-7.5%
O=C(NN1C(=O)/C(=C/c2cccc3ccccc23)SC1=S)c1cccc(O)c1	-11.2%
CCN(CC)c1ccc(C2NC(=S)NC(C)=C2C(=O)Nc2ccccc2)cc1 (stereo not given)	31.6%
Cc1ccc(C)c(OCCCCN2CCCC2)c1	0.1%
C=CCc1c(C)nc2cc(-c3ccc(C)cc3)[nH]n2c1=O	9.4%
CCOc1ccc(N(CC(=O)Nc2cccc(Br)c2)S(C)(=O)=O)cc1	-7.6%
Cc1ccc(CNC(=O)c2ccc([N+](=O)[O-])cc2Cl)cc1	0.9%
CCc1c(C)sc(NC(=O)c2ccc(F)cc2)c1C(=O)OC(C)C	-3.1%
Cc1ccc(-n2nc3cc(C)c(NC(=O)c4cccc(C)c4)cc3n2)cc1	85.1%
CC1=C(C(=O)Nc2ccccc2C)C(c2ccc3c4c(cccc24)CC3)NC(=S)N1 (stereo not given)	10.6%
CC(Oc1ccccc1)C(=O)Nc1cc(Cl)c(Cl)cc1Cl (stereo not given)	16.3%
O=c1oc2cc(OCc3ccc(Br)cc3)ccc2c2ccccc12	-3.8%

Compound	displacement
CCOC(=O)C(C)Oc1ccc2c(C)c(CC)c(=O)oc2c1 (stereo not given)	-3.1%
Cc1cc2c(Nc3c([N+](=O)[O-])ccc4c3=NC3(CCCCC3)N=4)cccc2nn1	23.3%
Cc1cccc(NC(=O)c2ccccc2NC(=O)c2ccccc2)n1	-9.3%
CC1(C)Cc2c(sc(NC(=O)c3ccc(F)cc3)c2C#N)CO1	10%
O=C(Nc1nnc(COc2ccc(F)cc2)s1)c1cccc2ccccc12	-10.6%
O=S(=O)(Nc1ccc(O)c(Cl)c1)c1cc(Cl)ccc1Cl	7.9%
COc1cc2c(cc1NS(=O)(=O)c1ccc([N+](=O)[O-])cc1)oc1ccccc12	-2.9%
Cc1ccc(S(=O)(=O)OCCOCCOS(=O)(=O)c2ccc(C)cc2)cc1	-5.3%
Cc1ccc(OCC(=O)NNC(=O)c2cc(Cl)ccc2O)c(C)c1	-16.7%
COc1ccc(C2CC(=O)C3=C(C2)Nc2ccccc2NC3c2ccccc2Br)cc1 (stereo not given)	-1.7%
O=C(CCCC(=O)Nc1cccc(Br)c1)N/N=C/c1cc([N+](=O)[O-])ccc1O	-21.6%
CCOC(=O)C1=C(c2ccccc2)N=c2s/c(=C\c3ccc(O)c(OC)c3)c(=O)n2C1c1ccccc1OC (stereo not given)	43.3%
Cc1cc(/C=N/NC(N)=S)c(C)n1-c1cccc([N+](=O)[O-])c1	-17%
FC(F)C(F)(F)c1nc2ccccc2[nH]1	1.9%
NC(=O)NC(c1ccccc1)c1ccccc1F (stereo not given)	7.7%
O=c1/c(=C/c2cccc(OCc3ccccc3F)c2)sc2nc3ccccc3n12	1.9%
O=C(Nc1cc(C(F)(F)F)cc(C(F)(F)F)c1)c1cccc(Br)c1	-6.3%
O=C(CN(c1cccc(Cl)c1)S(=O)(=O)c1ccccc1)N1CCc2ccccc2C1	3.8%
O=C(/C=C/c1ccccc1)NC(=S)Nc1cccc(C(F)(F)F)c1	9.2%
C(=N\n1cnnc1)/c1ccc(OCCOc2ccccc2)cc1	11.2%
O=C1CSC(c2cn(-c3ccccc3)nc2-c2ccc(Cl)cc2)N1Cc1ccco1 (stereo not given)	-13.9%
FC(F)(F)c1nnc2ccc(N3CCOCC3)nn12	7.7%
